Laboratory results taken from the BET-seq Pho4 binding data (Le et al. 2018).
The other results are listed elsewhere or left out. The energies were worked out here from pooled read counts, against the library average; single values are noisy.

What follows are sequences tested against T1, Pho4 (S. cerevisiae) (UniProt P07270) (assay: relative binding free energy (BET-seq); higher = weaker binding). Details: reference: library average.
T1 sequence: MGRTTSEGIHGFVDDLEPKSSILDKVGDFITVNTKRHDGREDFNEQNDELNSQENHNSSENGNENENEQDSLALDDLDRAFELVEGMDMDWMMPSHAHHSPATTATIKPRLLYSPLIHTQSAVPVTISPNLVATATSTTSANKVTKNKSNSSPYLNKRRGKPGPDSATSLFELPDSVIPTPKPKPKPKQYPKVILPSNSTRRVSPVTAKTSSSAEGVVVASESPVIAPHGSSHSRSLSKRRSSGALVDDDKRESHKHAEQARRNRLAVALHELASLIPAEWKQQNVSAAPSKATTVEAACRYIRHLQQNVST

Row | Sequence | relative binding free energy [kcal/mol]
1 | GTCATCACGTGTTTAG | 0.22
2 | GGTACCACGTGGGTGC | -0.21
3 | ATACTCACGTGGTGTT | 0
4 | AGCGGCACGTGTTGGC | -0.2
5 | CGAGGCACGTGGAATT | 0.15
6 | TGTATCACGTGATCGT | 0.18
7 | GTTGTCACGTGACTTT | 0.23
8 | AAGGGCACGTGGGCCG | -0.15
9 | AGTGTCACGTGAGGTA | 0.21
10 | TACAGCACGTGAGTTT | 0.15
11 | ATTATCACGTGTTGGT | 0.11
12 | ATGCGCACGTGTTCGG | -0.1
13 | CGTATCACGTGCGGTG | 0.17
14 | ATTTGCACGTGTTTCA | -0.21
15 | GACGTCACGTGGATGG | 0.35
16 | ATATTCACGTGGAATT | 0.39
17 | TGTCTCACGTGGTACT | 0.19
18 | TTTAGCACGTGTAAGA | 0.16
19 | GGCCACACGTGTGTTG | 0.22
20 | TACGTCACGTGTACGT | 0.12

Row | Sequence | relative binding free energy [kcal/mol]
21 | TTGGGCACGTGCAGCT | -0.11
22 | TCTGACACGTGGTAGT | -0.09
23 | TGGTTCACGTGATGCG | 0.24
24 | TGGATCACGTGAACGG | 0.24
25 | TAGCTCACGTGGTTGT | 0.19
26 | AAAGACACGTGTGTTG | 0
27 | GTAGGCACGTGGTACG | -0.17
28 | ATTAGCACGTGCGGAT | -0.05
29 | AGGCTCACGTGGGGTG | 0.12
30 | TTTCTCACGTGTTAGT | 0.22
31 | GGGATCACGTGGAGTA | 0.11
32 | TTGGGCACGTGGGTAC | -0.27
33 | GTTGTCACGTGGGTAA | -0.08
34 | CGGTTCACGTGGTTGG | 0.18
35 | ATGTTCACGTGAAAAT | 0.26
36 | TTGCTCACGTGATGAT | 0.41
37 | AGGATCACGTGGTAGC | 0.07
38 | ACTGTCACGTGGTAAG | 0.07
39 | TTTTGCACGTGTGGAG | 0.2
40 | GGTGTCACGTGTTCAT | 0.15

Row | Sequence | relative binding free energy [kcal/mol]
41 | ATGTACACGTGTAAGA | 0.26
42 | CAGGGCACGTGGTAGA | -0.1
43 | TAGTACACGTGGATGT | 0.08
44 | TGATGCACGTGGAGAA | 0.18
45 | TGTTTCACGTGTGCTG | 0.39
46 | GTGCTCACGTGGAATT | 0.3
47 | TCGGGCACGTGAGTTT | 0.27
48 | ATGGACACGTGCGGTA | 0.06
49 | TGTCTCACGTGGGCTA | 0.07
50 | ATATGCACGTGAGGGC | 0.09
51 | AGTCGCACGTGGTATA | -0.08
52 | TTTAGCACGTGGTGTC | -0.2
53 | GTGGACACGTGGTAGA | 0.03
54 | TTATTCACGTGTTGTT | 0.23
55 | ATTGCCACGTGTTTGG | -0.08
56 | TCGCTCACGTGTTTTG | 0.21
57 | TGTTACACGTGGAACT | 0.35
58 | AGTTACACGTGAATAT | 0.24
